Source: patent US20250179210A1, “ANTI-CEACAM5 ANTIBODIES AND CONJUGATES AND USES THEREOF” (Merck Patent GmbH, priority 2022, published 2025)

Legend:
A549 = experiment: Flow cytometry binding to cell lines; parameters: species or system human; details: 10 μg/mL primary antibody
Method: (§1) Method used: 5E5 to 1E6 cells were used for flow cytometry analyses using a BD FACSCanto II (BD Biosciences) in 5 mL polystyrene tubes. Staining with 10 μg/mL primary antibodies (mAb1, rb8G4, mouse monoclonal Agilent Dako #M7072 clone #IL7) and respective fluorescently labeled secondary antibodies (donkey anti-human IgG Jackson-Dianova #709-116-149; donkey anti-mouse IgG Jackson ImmunoResearch #715-116-150, donkey anti-rabbit IgG Jackson-Dianova #711-116-152) were conducted in 50 μL 1% PBS/BSA for 20 to 30 min at 4° C. Between and after staining steps, cells were washed thrice with 1% PBS/BSA and resuspended in 500 μL 1% PBS/BSA (including 0.2 μg/mL DAPI for live cell gating) for flow cytometry analyses. For data evaluation, FlowJo software (BD Biosciences) was used.

MDA-MB-468 = experiment: Flow cytometry binding to cell lines; parameters: species or system human; details: 10 μg/mL primary antibody
Method: as §1

MKN-45 [1] = experiment: Flow cytometry binding to cell lines; parameters: species or system human; details: 10 μg/mL primary antibody
Method: as §1

NCI-H441 = experiment: Flow cytometry binding to cell lines; parameters: species or system human; details: 10 μg/mL primary antibody
Method: as §1

[2] = Payload liberation in human liver lysosomes; assay type: in vitro ADME
Method: pH was adjusted either to pH 5.0 or pH 4.0 using assay buffer. […] Preparation of MeOH+PIC (1:200): 10 μL PIC III+1990 μL MeOH. The reactions were started upon transferring the Eppendorf tubes to a Thermomix that was preheated to 37° C. Subsequently, 10 μL aliquots were drawn after 0, 1, 2, 4, 24 and 48 hours and mixed with 40 μL PIC III (1:200).

MKN-45 [3] = experiment: Viability assay (Cell Titer-Glo); assay type: cell-based, human; details: Table 2; at the highest tested compound concentration
SNU-16 = experiment: Viability assay (Cell Titer-Glo); assay type: cell-based, human; details: Table 2; at the highest tested compound concentration
LS174T = experiment: Viability assay (Cell Titer-Glo); assay type: cell-based, human; details: Table 2; at the highest tested compound concentration
[4] = test system: CEACAM5-negative MDA-MB-231 cells in co-culture with CEACAM5-positive SK-CO-1 cells; experiment: Bystander assay; assay type: cell-based, human
[5] = test system: human patient-derived CRC xenograft model COPF230; experiment: CRC PDX mouse model COPF230; assay type: in vivo; details: single i.v. treatment, 6 mg/kg
Method: (§2) Anti-tumor efficacy in vivo was evaluated in the human patient-derived CRC xenograft models COPF230 and REPF210 (Shanghai LideBiotech CO., LTD). Tumor fragments were transplanted subcutaneously into the right flank of six to eight weeks old immunodeficient female mice (NU-Foxn1nu, Charles River). […] Tumor length (L) and width (W) were measured with calipers and tumor volumes were calculated using the formula L×(W^2)/2.
Anti-tumor efficacy of ADC1-M and ADC3-M in comparison to ADC SAR DM4 was in the human CRC xenograft model COPF230. The study was performed at Lide Biotech (Shanghai). Six to eight weeks old immunodeficient female mice (Crl: NU-Foxn1nu) were transplanted subcutaneously in the right flank with COPF230 tumor fragments. When tumors reached a mean volume of 165 mm^3 6 mice/group were treated once intravenously with vehicle (saline solution) or with ADC1-M, ADC3-M or ADC SAR DM4 (each 6 mg/kg). Tumor length (L) and width (W) were measured with calipers and tumor volumes were calculated using L×W^2/2.

[6] = test system: human patient-derived CRC xenograft model REPF210; experiment: CRC PDX mouse model REPF210; assay type: in vivo; details: single i.v. treatment, 6 mg/kg
Method: as §2

| Molecule | Quotient of MFI of antibody divided by MFI of secondary antibody only control (A549) | Quotient of MFI of antibody divided by MFI of secondary antibody only control (MDA-MB-468) | Quotient of MFI of antibody divided by MFI of secondary antibody only control (MKN-45 [1]) | Quotient of MFI of antibody divided by MFI of secondary antibody only control (NCI-H441) | payload release, of initial total conj. payload ([2]; human liver lysosomes, pH 5.0) [%] | ADC catabolite profiling, lysosomal release product ([2]; human lysosomal extracts, 0 h, 4 h, 24 h) | MKN-45 maximal effect compared to untreated controls (MKN-45 [3]) | SNU-16 maximal effect compared to untreated controls (SNU-16) | LS174T maximal effect compared to untreated controls (LS174T) | non-specific effect on MDA-MB-231 cells alone (only controls) ([4]; ADC concentration of 1 nM) | bystander effect against CEACAM5-negative MDA-MB-231 cells in the presence of CEACAM5-positive SK-CO-1 ([4]; ADC concentration of 1 nM, six days) | bystander effect compared to ADC SAR DM4 ([4]; co-culture, 1 nM) | anti-tumor effect [5] | anti-tumor effect [6] |
| --- | --- | --- | --- | --- | --- | --- | --- | --- | --- | --- | --- | --- | --- | --- |
| mAb1: anti-CEACAM5 antibody; two heavy chains SEQ ID NO: 13 and two light chains SEQ ID NO: 14 (antibody) heavy: EVQLQESGPGLVKPSQTLSLTCTVSDGSVSRGGYYLTWIRQHPGKGLEWIGYIYYSGSTYFNPSLRSRVTMSVDTSKNQFSLKLSSVTAADTAVYYCARGIAVAPFDYWGQGTLVTVSSASTKGPSVFPLAPSSKSTSGGTAALGCLVKDYFPEPVTVSWNSGALTSGVHTFPAVLQSSGLYSLSSVVTVPSSSLGTQTYICNVNHKPSNTKVDKRVEPKSCDKTHTCPPCPAPPVAGPSVFLFPPKPKDTLMISRTPEVTCVVVDVSHEDPEVKFNWYVDGVEVHNAKTKPREEQYNSTYRVVSVLTVLHQDWLNGKEYKCKVSNKALPSSIEKTISKAKGQPREPQVYTLPPSREEMTKNQVSLTCLVKGFYPSDIAVEWESNGQPENNYKTTPPVLDSDGSFFLYSKLTVDKSRWQQGNVFSCSVMHEALHNHYTQKSLSLSPG light: EIVLTQSPATLSVSPGERATLSCRTSQSVRSNLAWYQQKPGQAPRLLIYAASTRATGIPARFSGSGSGTEFTLTISSLQSEDFAVYYCQQYTNWPFTFGPGTKVDIKRTVAAPSVFIFPPSDEQLKSGTASVVCLLNNFYPREAKVQWKVDNALQSGNSQESVTEQDSKDSTYSLSSTLTLSKADYEKHKVYACEVTHQGLSSPVTKSFNRGEC | 1.1 | 1.1 | 23.2 | 2.2 | – | – | – | – | – | – | – | – | – | – |
| ADC1 (conjugate) heavy: EVQLQESGPGLVKPSQTLSLTCTVSDGSVSRGGYYLTWIRQHPGKGLEWIGYIYYSGSTYFNPSLRSRVTMSVDTSKNQFSLKLSSVTAADTAVYYCARGIAVAPFDYWGQGTLVTVSSASTKGPSVFPLAPSSKSTSGGTAALGCLVKDYFPEPVTVSWNSGALTSGVHTFPAVLQSSGLYSLSSVVTVPSSSLGTQTYICNVNHKPSNTKVDKRVEPKSCDKTHTCPPCPAPPVAGPSVFLFPPKPKDTLMISRTPEVTCVVVDVSHEDPEVKFNWYVDGVEVHNAKTKPREEQYNSTYRVVSVLTVLHQDWLNGKEYKCKVSNKALPSSIEKTISKAKGQPREPQVYTLPPSREEMTKNQVSLTCLVKGFYPSDIAVEWESNGQPENNYKTTPPVLDSDGSFFLYSKLTVDKSRWQQGNVFSCSVMHEALHNHYTQKSLSLSPG light: EIVLTQSPATLSVSPGERATLSCRTSQSVRSNLAWYQQKPGQAPRLLIYAASTRATGIPARFSGSGSGTEFTLTISSLQSEDFAVYYCQQYTNWPFTFGPGTKVDIKRTVAAPSVFIFPPSDEQLKSGTASVVCLLNNFYPREAKVQWKVDNALQSGNSQESVTEQDSKDSTYSLSSTLTLSKADYEKHKVYACEVTHQGLSSPVTKSFNRGEC | – | – | – | – | ~40 | expected exatecan catabolite was subsequently released | (−78%) | (−91%) | (−72%) | no non-specific effect | potent bystander effect | much more potent bystander effect | significant anti-tumor effect | significant anti-tumor effect |
